Whole data set: some 33,000 sequences, median “E-score (-0.5 to 0.5)” near -0.041, cut for the highest 2% near 0.37. This is one part of the list.

The target in the assay is T1, Ecm22 (UniProt Q05958).
T1 sequence: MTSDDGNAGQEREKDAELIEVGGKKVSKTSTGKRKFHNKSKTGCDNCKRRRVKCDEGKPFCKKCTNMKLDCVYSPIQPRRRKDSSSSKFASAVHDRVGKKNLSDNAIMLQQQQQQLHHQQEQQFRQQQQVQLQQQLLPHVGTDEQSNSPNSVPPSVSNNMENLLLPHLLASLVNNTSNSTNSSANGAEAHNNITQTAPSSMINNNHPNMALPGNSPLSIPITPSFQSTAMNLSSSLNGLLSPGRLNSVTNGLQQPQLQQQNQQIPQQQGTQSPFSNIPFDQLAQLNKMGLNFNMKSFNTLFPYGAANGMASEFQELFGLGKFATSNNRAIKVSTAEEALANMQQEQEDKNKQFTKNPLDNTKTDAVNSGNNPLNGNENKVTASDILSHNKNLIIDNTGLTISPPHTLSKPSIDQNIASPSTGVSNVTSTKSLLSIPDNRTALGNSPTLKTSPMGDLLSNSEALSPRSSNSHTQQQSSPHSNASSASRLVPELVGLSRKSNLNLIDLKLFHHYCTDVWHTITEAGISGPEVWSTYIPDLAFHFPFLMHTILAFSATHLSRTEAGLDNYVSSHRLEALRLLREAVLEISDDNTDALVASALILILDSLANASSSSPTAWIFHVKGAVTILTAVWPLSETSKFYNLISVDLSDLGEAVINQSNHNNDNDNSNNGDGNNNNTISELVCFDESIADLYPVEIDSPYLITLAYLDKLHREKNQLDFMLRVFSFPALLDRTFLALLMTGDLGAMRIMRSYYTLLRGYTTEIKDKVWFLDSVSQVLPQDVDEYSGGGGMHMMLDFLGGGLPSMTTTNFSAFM
The assay is described as follows: PBM E-score (8-mer binding enrichment) (E-score (-0.5 to 0.5)); higher = stronger / more preferred TF binding; most listed sequences are background and not binding sites. The conditions noted are these: protein concentration: 200 nM; construct: GST-full length. The method, boiled down:
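Using PURExpress in vitro transcription/translation, GST-tagged yeast transcription factors were made in full-length or DNA-binding-domain form. These were applied at about 100-200 nM to double-stranded universal all-10-mer Agilent arrays, and bound protein was detected with fluorescent anti-GST. Scans were normalised with masliner before the Universal PBM Analysis Suite assigned E-scores to ungapped eight-base words pooled with their reverse complements.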
As for GCCCGGGA, the “PBM E-score” value is -0.159.

GTCGCGGA: the “PBM E-score” value is 0.00957.

Take CAAGCATA: the “PBM E-score” value was -0.101.

CTATAATA: the “PBM E-score” value is -0.113.

On to AGGGGTAT, for which the “PBM E-score” value is -0.191.

GCATAGGC: the “PBM E-score” value was -0.178.

For the sequence CACATCCA, the “PBM E-score” value is -0.0496.

Turning to AACATAGC, the “PBM E-score” value was -0.2.

Take CCAAATAC: the “PBM E-score” value was -0.0979.

Consider ACAACACT, for which the “PBM E-score” value is 0.116.

Regarding ACGCCGTA, the “PBM E-score” value worked out at 0.307.

Regarding GGATGTTA, the “PBM E-score” value was -0.122.

Turning to CTTGCAGA, the “PBM E-score” value was -0.122.

With CTCGGAAA, the “PBM E-score” value is 0.276.

For the sequence CCCTCTTA, the “PBM E-score” value was -0.128.

Consider AAGGCTTG, for which the “PBM E-score” value is -0.162.

For the sequence CAACGTAC, the “PBM E-score” value was found to be 0.221.

On to CGATAGCG, for which the “PBM E-score” value stood at 0.128.

With ACTAAATA, the “PBM E-score” value stood at 0.0746.

Take CCAGCGGA: the “PBM E-score” value was -0.124.

In the case of ACGCATGC, the “PBM E-score” value turned out to be 0.128.

Regarding TCCTTGAA, the “PBM E-score” value is -0.0614.

With AGGGTTCG, the “PBM E-score” value turned out to be 0.0129.

Consider TATTGACA, for which the “PBM E-score” value is -0.0652.

As to CCAGGTCC, the “PBM E-score” value was -0.192.

As for ACGGATAT, the “PBM E-score” value was 0.176.

Take CTCTCACC: the “PBM E-score” value was -0.0965.

With GTTATCTA, the “PBM E-score” value worked out at 0.0357.

On to CGACATCG, for which the “PBM E-score” value is 0.25.

Regarding ACAGCCCT, the “PBM E-score” value was -0.279.

On to GACCAGCA, for which the “PBM E-score” value is -0.0703.

Regarding AACACCGT, the “PBM E-score” value was 0.16.

Regarding AATTAGCT, the “PBM E-score” value is 0.0861.

As for GCCCCCCC, the “PBM E-score” value was -0.174.

Take AGCGCGAA: the “PBM E-score” value is 0.09.

In the case of CTGCGGAA, the “PBM E-score” value is -0.0657.

With GATATTCA, the “PBM E-score” value was -0.102.

On to GTGTTATA, for which the “PBM E-score” value is 0.143.

Turning to CCAAAAAG, the “PBM E-score” value was -0.283.

As to ACCACGGG, the “PBM E-score” value was -0.0797.

With AATTTTAC, the “PBM E-score” value is 0.134.

ACATTAAG: the “PBM E-score” value was -0.113.

Consider CCCGCCGA, for which the “PBM E-score” value was -0.091.

For the sequence ACCGGTTA, the “PBM E-score” value was 0.15.

Take GTTGGGTA: the “PBM E-score” value was -0.00422.

Consider CCCAAGGC, for which the “PBM E-score” value is -0.0365.

As for GGAGGCTA, the “PBM E-score” value is -0.234.

For ATAATCGC, the “PBM E-score” value was 0.12.

Take CAGATGCA: the “PBM E-score” value is -0.287.

With AACCACGA, the “PBM E-score” value was -0.02.

CATAACCC: the “PBM E-score” value was -0.0625.

Consider GAATTGTA, for which the “PBM E-score” value is 0.0977.

With CTTGCAAA, the “PBM E-score” value is -0.00195.

Consider AGAAACAA, for which the “PBM E-score” value was -0.0295.

Take CCGTGGCG: the “PBM E-score” value is -0.101.

On to ATACAGAA, for which the “PBM E-score” value came out at 0.0274.

As to CATGGCGG, the “PBM E-score” value was -0.188.

Take CCTTAAAG: the “PBM E-score” value is -0.217.

As for AGCTGGTG, the “PBM E-score” value was -0.101.

For CATTTAGG, the “PBM E-score” value is -0.192.

In the case of GCTTCGGA, the “PBM E-score” value amounted to 0.121.

For the sequence CAAGTTCA, the “PBM E-score” value is -0.0478.

GATTATGA: the “PBM E-score” value worked out at 0.106.

For CTGCAGAA, the “PBM E-score” value was 0.116.

Take CCGTTCGA: the “PBM E-score” value amounted to 0.152.

In the case of CGCGGCTC, the “PBM E-score” value worked out at 0.106.

With GAGTACTC, the “PBM E-score” value was -0.129.

As for GCAGTGTA, the “PBM E-score” value was -0.0155.

Regarding AGGAGCCA, the “PBM E-score” value is -0.181.

With AACACTCA, the “PBM E-score” value amounted to 0.113.

In the case of TGGTGGAA, the “PBM E-score” value is 0.0476.

As to ACAGGCCG, the “PBM E-score” value was -0.101.

For AGATACTC, the “PBM E-score” value was -0.0181.

ACTGACGA: the “PBM E-score” value worked out at 0.143.

On to AGTCTCCG, for which the “PBM E-score” value came to 0.0836.

For AAGGACAT, the “PBM E-score” value is -0.105.

Turning to GCTGCCAC, the “PBM E-score” value was -0.254.

Take GAAAAATA: the “PBM E-score” value stood at 0.0115.

For ACCAGCTC, the “PBM E-score” value is -0.021.

In the case of CGTCAACG, the “PBM E-score” value is 0.0717.

With TAAGTTAA, the “PBM E-score” value is -0.196.

For the sequence ACATCGCG, the “PBM E-score” value was determined as 0.129.

With GATTGTGC, the “PBM E-score” value is 0.0123.

In the case of CCTGCCGC, the “PBM E-score” value is -0.0288.

For the sequence TCGGTAAA, the “PBM E-score” value was determined as 0.307.

For ACCTTTTA, the “PBM E-score” value came out at 0.00442.

These data come from the supplement of paper PMC3334620.
